Reference: the RNAGym collection of RNA variant scans (doi:10.1073/pnas.2313332121)
Variants at the background level are over-represented here.

B1: TPR 5TU (parent)
chain: GGAUCUUCUCGAUCUAACAAAAAAGACAAAUCUGCCACAAAGCUUGAGAGCAUCUUCGGAUGCAGAGGCGGCAGCCUUCGGUGGCGCGAUAGCGCCAACGUUCUCAACUAUGACACGCAAAACGCGUGCUCCGUUGAAUGGAGUUUAUCAUG

Variants of: B1
Assay: polymerase ribozyme fitness, log enrichment relative to wild type (log ratio); higher = more active; in vitro selection for triplet polymerase activity
In short: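 Fitness compares each genotype's enrichment to that of the wild type on a logarithmic scale, averaging replicates with inverse-variance weights. The logarithm is base 2. Enrichment came from Illumina sequencing of input and output libraries after one triplicate round of in vitro selection, which included frozen incubation at −7 °C, of PCR-built, transcribed mutant libraries of each subunit of a heterodimeric triplet polymerase ribozyme. Only genotypes with ≥10 input reads and ≥1 read per output were kept.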

Variant	polymerase ribozyme fitness (log ratio)
A17U A29C U44A G94C	≤ -4.2
A17U A29G G58A C87U A89G U130C G152U	≤ -4.2
A17U A29U G42C U61A G84A A97U U102G A107U C108G G141C U145C	≤ -4.2
A17U A29U G48A C51U C96A A138G	≤ -4.2
A17U A29U G74C G124U	≤ -4.2
A17U A30G C36U G70A C95G U144G	≤ -4.2
A17U A30G C79A G83A C116G	≤ -4.2
A17U A30G C99A	≤ -4.2
A17U A30G U44G C75A U82G A97G U109C C129G A142G A147U	≤ -4.2
A17U A30U G68U C123U U146A	≤ -4.2
A17U A30U U55C C116U	-4.01
A17U A37C C93G C96A	≤ -4.2
A17U A37U G59C G81A A97G C116G	-1.87
A17U A39C G46A G48A	≤ -4.2
A17U A40G C54U G83A A91C G126C	≤ -4.2
A17U A40U C123U	-0.36
A17U A40U G58U C96U G133A G143C	≤ -4.2
A17U A40U G59C A73G C76A A91G C114A G124A A150U	≤ -4.2
A17U A41C C51A C57G A66U	≤ -4.2
A17U A41U A49C U61A U102G A107G C114G G141C	≤ -4.2
A17U A47C A60G C75U G143U	≤ -4.2

Variant	polymerase ribozyme fitness (log ratio)
A17U A47G C57U G74C U77C U82A G83A U102G A150G	≤ -4.2
A17U A47G U77A G88A A89U	≤ -4.2
A17U A47G U82G C95U C96G G117C G141A	≤ -4.2
A17U A49C U61A C63U C72U C93A G128U G141C	≤ -4.2
A17U A49G G86U G140A	≤ -4.2
A17U A52C C79A C93G A97U A106G C116U	≤ -4.2
A17U A52C C99U C105U G124A G126C	≤ -4.2
A17U A52G G58C G86U A97G C125A	≤ -4.2
A17U A52U A142C	-3.3
A17U A52U U55A U77G C93U U104A	≤ -4.2
A17U A91U C103G C108U G124A A137C	≤ -4.2
A17U A113U	-1.99
A17U C18U A19U A47U C63U U77C A91U C99G G141C	≤ -4.2
A17U C18U A22G C43U C51U C85A G86U	≤ -4.2
A17U C27A A37U C75G G86A G133A	≤ -4.2
A17U C27U A41U G58A C79G C87G A97U C99A	≤ -4.2
A17U C27U G50C U53A G71A C95A	≤ -4.2
A17U C32A G34U C35U A39C A49G A60G G88A C93U C95G A120G A147C	≤ -4.2
A17U C32G G48A C79G G84U G86U C108U	≤ -4.2
A17U C35A C54U U56C G88U A122C	≤ -4.2
A17U C35G G48C A49U G86A A91C G124C U148A	≤ -4.2

Variant	polymerase ribozyme fitness (log ratio)
A17U C35U A47C G92C G128A U134C	≤ -4.2
A17U C35U A97U G141A	-1.34
A17U C35U C51U C103G	≤ -4.2
A17U C36A G84A A142C G143C	≤ -4.2
A17U C38U C85A U139A G143A	≤ -4.2
A17U C38U C95U U102G A106U U148A	≤ -4.2
A17U C43A C93A	≤ -4.2
A17U C51G G83A U134C	-3.2
A17U C51U C57U C85G C93U A107G C129A	≤ -4.2
A17U C51U G83C A91U U139A G140A G141A U148C	≤ -4.2
A17U C51U U55A U78A G81C C123G	≤ -4.2
A17U C54A A89C C99A G136A	-4.03
A17U C54A C63U G92A C105U G140U	≤ -4.2
A17U C54U A89C C95A A107U C108U	≤ -4.2
A17U C54U C75G A97C C99U U104G A142C U151G	≤ -4.2
A17U C57A C79G C85A C125G G143A	≤ -4.2
A17U C57A G83C C99G	≤ -4.2
A17U C63A C76G G86C C87U U127A	≤ -4.2
A17U C72U C99U	-1.38
A17U C75A	≤ -4.2
A17U C85A	-1.17

Variant	polymerase ribozyme fitness (log ratio)
A17U C87U G94A C103G	≤ -4.2
A17U C87U U90C C99G	-3.69
A17U C93G U102A A107C G143A	≤ -4.2
A17U C93U A97G G124A C131G U145A	≤ -4.2
A17U C96A	-0.735
A17U C96G A142U U146A	-2.11
A17U C105A	-1.28
A17U C116U	-0.46
A17U G25C A29U G48C U53A G70U C93G C129A C131A A150C	≤ -4.2
A17U G25C U44A C87G G94A G140A	≤ -4.2
A17U G25U A47U U56A C96G G140A	≤ -4.2
A17U G25U U55A C87G	≤ -4.2
A17U G42A A52G C87A	≤ -4.2
A17U G42U U44A U45C G84U G141A	≤ -4.2
A17U G46A G50A G59C C93U G94A A113G C149A	≤ -4.2
A17U G46U G84A C105U	-0.266
A17U G48A C51G U55G C96G C105U C118U G136U G141U	≤ -4.2
A17U G48C C75A G80A G81C A91G	≤ -4.2
A17U G50A A73G U77G A120G	≤ -4.2
A17U G50A C87G G141A	≤ -4.2
A17U G50C C93G	≤ -4.2
